# From the supplement of paper PMC8728848
# Some of the results follow.
# Tests used:
# Assay in all cases: glycan array binding signal (z-score within array); higher = stronger binding
# Details in all cases: glycan notation: IUPAC condensed, linker removed
# [1] = target: Neu5Ac(a2-3)Gal(b1-3)[Neu5Ac(a2-6)]GalNAc
# Outline: (§1)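 From the Consortium for Functional Glycomics database, 3228 arrays were curated, keeping only those whose protein sequence was available. Binding is given as a within-array Z-score averaged across arrays sharing a protein sequence and across linkers. Negative Z-scores can be read as non-binding.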
# [2] = target: Neu5Ac(a2-3)Gal(b1-3)[Neu5Ac(a2-6)]GlcNAc(b1-3)[Fuc(a1-3)[Gal(b1-4)]GlcNAc(b1-6)]Gal(b1-4)Glc
# Outline: as §1
# [3] = target: Neu5Ac(a2-3)Gal(b1-3)]Neu5Ac(a2-3)Gal(b1-4)]GlcNAc
# Outline: as §1
# Neu5Ac(a2-3)Gal(b1-4)Glc = target: Neu5Ac(a2-3)Gal(b1-4)Glc
# Outline: as §1
# [4] = target: Neu5Ac(a2-3)Gal(b1-4)GlcNAc
# Outline: as §1
# [5] = target: Neu5Ac(a2-3)Gal(b1-4)GlcNAc(b1-2)Man
# Outline: as §1
# [6] = target: Neu5Ac(a2-3)Gal(b1-4)GlcNAc(b1-2)Man(a1-3)[GlcNAc(b1-4)][Neu5Ac(a2-3)Gal(b1-4)GlcNAc(b1-2)Man(a1-6)]Man(b1-4)GlcNAc(b1-4)GlcNAc
# Outline: as §1
# [7] = target: Neu5Ac(a2-3)Gal(b1-4)GlcNAc(b1-2)Man(a1-3)[Neu5Ac(a2-3)Gal(b1-4)GlcNAc(b1-2)Man(a1-6)]Man(b1-4)GlcNAc(b1-4)GlcNAc
# Outline: as §1
# [8] = target: Neu5Ac(a2-3)Gal(b1-4)GlcNAc(b1-2)Man(a1-3)[Neu5Ac(a2-3)Gal(b1-4)GlcNAc(b1-2)Man(a1-6)]Man(b1-4)GlcNAc(b1-4)[Fuc(a1-6)]GlcNAc
# Outline: as §1
# [9] = target: Neu5Ac(a2-3)Gal(b1-4)GlcNAc(b1-2)Man(a1-3)[Neu5Ac(a2-6)Gal(b1-4)GlcNAc(b1-2)Man(a1-6)]Man(b1-4)GlcNAc(b1-4)GlcNAc
# Outline: as §1
# [10] = target: Neu5Ac(a2-3)Gal(b1-4)GlcNAc(b1-2)[Neu5Ac(a2-3)Gal(b1-4)GlcNAc(b1-4)]Man(a1-3)[GlcNAc(b1-4)][Neu5Ac(a2-3)Gal(b1-4)GlcNAc(b1-2)[Neu5Ac(a2-3)Gal(b1-4)GlcNAc(b1-6)]Man(a1-6)]Man(b1-4)GlcNAc(b1-4)GlcNAc
# Outline: as §1
# [11] = target: Neu5Ac(a2-3)Gal(b1-4)GlcNAc(b1-2)[Neu5Ac(a2-3)Gal(b1-4)GlcNAc(b1-4)]Man(a1-3)[GlcNAc(b1-4)][Neu5Ac(a2-3)Gal(b1-4)GlcNAc(b1-4)Man(a1-6)]Man(b1-4)GlcNAc(b1-4)GlcNAc
# Outline: as §1
# [12] = target: Neu5Ac(a2-3)Gal(b1-4)GlcNAc(b1-2)[Neu5Ac(a2-3)Gal(b1-4)GlcNAc(b1-6)]Man(a1-6)[Neu5Ac(a2-3)Gal(b1-4)GlcNAc(b1-2)Man(a1-3)]Man(b1-4)GlcNAc(b1-4)GlcNAc
# Outline: as §1
# [13] = target: Neu5Ac(a2-3)Gal(b1-4)GlcNAc(b1-2)[Neu5Ac(a2-3)Gal(b1-4)GlcNAc(b1-6)]Man(a1-6)[Neu5Ac(a2-3)Gal(b1-4)GlcNAc(b1-2)Man(a1-3)][GlcNAc(b1-4)]Man(b1-4)GlcNAc(b1-4)GlcNAc
# Outline: as §1
# [14] = target: Neu5Ac(a2-3)Gal(b1-4)GlcNAc(b1-3)Gal
# Outline: as §1
# [15] = target: Neu5Ac(a2-3)Gal(b1-4)GlcNAc(b1-3)Gal(b1-3)GlcNAc
# Outline: as §1
# [16] = target: Neu5Ac(a2-3)Gal(b1-4)GlcNAc(b1-3)Gal(b1-4)GlcNAc
# Outline: as §1
# [17] = target: Neu5Ac(a2-3)Gal(b1-4)GlcNAc(b1-3)Gal(b1-4)GlcNAc(b1-2)Man(a1-3)[Neu5Ac(a2-3)Gal(b1-4)GlcNAc(b1-3)Gal(b1-4)GlcNAc(b1-2)Man(a1-6)]Man(b1-4)GlcNAc(b1-4)GlcNAc
# Outline: as §1
# [18] = target: Neu5Ac(a2-3)Gal(b1-4)GlcNAc(b1-3)Gal(b1-4)GlcNAc(b1-3)Gal(b1-4)GlcNAc
# Outline: as §1
# [19] = target: Neu5Ac(a2-3)Gal(b1-4)GlcNAc(b1-3)Gal(b1-4)GlcNAc(b1-3)Gal(b1-4)GlcNAc(b1-2)Man(a1-3)[Neu5Ac(a2-3)Gal(b1-4)GlcNAc(b1-3)Gal(b1-4)GlcNAc(b1-3)Gal(b1-4)GlcNAc(b1-2)Man(a1-6)]GalNAc
# Outline: as §1
# [20] = target: Neu5Ac(a2-3)Gal(b1-4)GlcNAc(b1-3)Gal(b1-4)GlcNAc(b1-3)GalNAc
# Outline: as §1
# [21] = target: Neu5Ac(a2-3)Gal(b1-4)GlcNAc(b1-3)Gal(b1-4)GlcNAc(b1-3)[Neu5Ac(a2-3)Gal(b1-4)GlcNAc(b1-3)Gal(b1-4)GlcNAc(b1-6)]GalNAc
# Outline: as §1
# [22] = target: Neu5Ac(a2-3)Gal(b1-4)GlcNAc(b1-3)Gal(b1-4)GlcNAc(b1-6)[Gal(b1-3)]GalNAc
# Outline: as §1
# [23] = target: Neu5Ac(a2-3)Gal(b1-4)GlcNAc(b1-3)Gal(b1-4)[Fuc(a1-3)]GlcNAc
# Outline: as §1
# [24] = target: Neu5Ac(a2-3)Gal(b1-4)GlcNAc(b1-3)GalNAc
# Outline: as §1
# [25] = target: Neu5Ac(a2-3)Gal(b1-4)GlcNAc(b1-3)[Neu5Ac(a2-3)Gal(b1-4)GlcNAc(b1-6)]GalNAc
# Outline: as §1
# [26] = target: Neu5Ac(a2-3)Gal(b1-4)GlcNAc(b1-6)GalNAc
# Outline: as §1
# [27] = target: Neu5Ac(a2-3)Gal(b1-4)GlcNAc(b1-6)[Gal(b1-3)]GalNAc
# Outline: as §1
# [28] = target: Neu5Ac(a2-3)Gal(b1-4)GlcNAc(b1-6)[Neu5Ac(a2-3)Gal(b1-3)]GalNAc
# Outline: as §1
# [29] = target: Neu5Ac(a2-3)Gal(b1-4)GlcNAc6S
# Outline: as §1
# [30] = target: Neu5Ac(a2-3)Gal(b1-4)[Fuc(a1-3)]GlcNAc
# Outline: as §1
# [31] = target: Neu5Ac(a2-3)Gal(b1-4)[Fuc(a1-3)]GlcNAc(b1-2)Man
# Outline: as §1
# [32] = target: Neu5Ac(a2-3)Gal(b1-4)[Fuc(a1-3)]GlcNAc(b1-3)Gal
# Outline: as §1
# [33] = target: Neu5Ac(a2-3)Gal(b1-4)[Fuc(a1-3)]GlcNAc(b1-3)Gal(b1-4)GlcNAc
# Outline: as §1
# [34] = target: Neu5Ac(a2-3)Gal(b1-4)[Fuc(a1-3)]GlcNAc(b1-3)Gal(b1-4)[Fuc(a1-3)]GlcNAc(b1-3)Gal(b1-4)[Fuc(a1-3)]GlcNAc
# Outline: as §1
# [35] = target: Neu5Ac(a2-3)Gal(b1-4)[Fuc(a1-3)]GlcNAc(b1-3)GalNAc
# Outline: as §1
# [36] = target: Neu5Ac(a2-3)Gal(b1-4)[Fuc(a1-3)]GlcNAc(b1-6)[Gal(b1-3)]GalNAc
# Outline: as §1
binder,measurement,setting,value
DBA (Dolichos biflorus) (protein) ANIQSFSFKNFNSPSFILQGDATVSSGKLQLTKVKENGFPLRFPSGRAFYSSPIQIYDKFTGAVASWATSFTVKISAPSKASFADGIAFALVPVGSEPRRNGGYLGVFDSDVYNNSAQTVAVEFDTLSNSGWDPSMKHIGIDVNSIKSIATVSWDLANGENAEILITYNAATSLLVVSLVHPSRRTSYILSERVDITNELPEYVGVGFSATTGLSEGYIETHDVLSWSFASRLPDDSTAEPLDLARYLVRNVL,glycan array binding signal (z-score),[1],-0.104
same,glycan array binding signal (z-score),[2],-0.124
same,glycan array binding signal (z-score),[3],-0.117
same,glycan array binding signal (z-score),Neu5Ac(a2-3)Gal(b1-4)Glc,-0.105
same,glycan array binding signal (z-score),[4],-0.144
same,glycan array binding signal (z-score),[5],-0.076
same,glycan array binding signal (z-score),[6],-0.204
same,glycan array binding signal (z-score),[7],-0.109
same,glycan array binding signal (z-score),[8],-0.148
same,glycan array binding signal (z-score),[9],-0.165
same,glycan array binding signal (z-score),[10],-0.098
same,glycan array binding signal (z-score),[11],-0.126
same,glycan array binding signal (z-score),[12],-0.121
same,glycan array binding signal (z-score),[13],-0.187
same,glycan array binding signal (z-score),[14],-0.214
same,glycan array binding signal (z-score),[15],-0.146
same,glycan array binding signal (z-score),[16],-0.135
same,glycan array binding signal (z-score),[17],0.143
same,glycan array binding signal (z-score),[18],-0.122
same,glycan array binding signal (z-score),[19],0.264
same,glycan array binding signal (z-score),[20],-0.107
same,glycan array binding signal (z-score),[21],-0.058
same,glycan array binding signal (z-score),[22],0.048
same,glycan array binding signal (z-score),[23],-0.141
same,glycan array binding signal (z-score),[24],-0.144
same,glycan array binding signal (z-score),[25],-0.094
same,glycan array binding signal (z-score),[26],-0.064
same,glycan array binding signal (z-score),[27],-0.109
same,glycan array binding signal (z-score),[28],-0.106
same,glycan array binding signal (z-score),[29],-0.156
same,glycan array binding signal (z-score),[30],-0.134
same,glycan array binding signal (z-score),[31],-0.089
same,glycan array binding signal (z-score),[32],-0.146
same,glycan array binding signal (z-score),[33],-0.118
same,glycan array binding signal (z-score),[34],-0.125
same,glycan array binding signal (z-score),[35],-0.015
same,glycan array binding signal (z-score),[36],-0.032
